Test results from PubChem BioAssay AID720542 (National Center for Advancing Translational Sciences (NCATS), 2013).
The whole screen tested about 360,000 compounds, of which about 740 (0.21%) were called active. The shares of active, inactive and inconclusive entries below differ from those in the screen. Calls come from the whole dose curve; as a rule, active = well fitted inhibition curve with a large enough effect; inconclusive = small, poorly fitted or top-dose-only effect; inactive = no such curve, though single readings can be large or run the other way. Potencies of inconclusive entries are left out as doubtful fits.

system: Plasmodium falciparum AMA1 (3D7) - RON2 peptide interaction; test: qHTS for Inhibitors of AMA1-RON; Towards Development of Antimalarial Drug Lead: Primary Screen; settings: AlphaScreen AMA1-biotinylated RON2 peptide binding; activity change, negative = inhibition: at 58.2 µM (top of the series) unless noted; note: nearly all actives have a fitted effect of over 45% in size;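 for activity change, negative = inhibition: 0% = vehicle wells and -100% = peptide control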
Summary of the method: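 AMA1 (3D7) with his tag at 25 nM final met compounds first, then biotinylated RON2 peptide at 25 nM; detection used donor plus acceptor beads, 10 µg/mL apiece, read by AlphaScreen after 30 min at room temperature.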
Potency is the fitted concentration of half-maximal effect; tags give direction and shape of the fitted curve.

Row | SMILES | activity change, negative = inhibition | Potency
1 | NCCCCCNC(=O)c1[nH]cnc1C(=O)N[C@@H](Cc1ccccc1)C(=O)OCc1ccccc1 | inactive: 51.9% | –
2 | CN1c2ccccc2N(C)C1(C)c1cccc2ccccc12 | – | inconclusive [inhibitor, single point]
3 | N#CC(=C1C=CC(=NO)C(Cl)=C1)c1ccccc1 | – | inconclusive [inhibitor, partial curve]
4 | Cc1cc(C(=O)COc2ccc(Cl)cc2Br)c(C)n1C | – | inconclusive [inhibitor, single point]
5 | CC1(C)Cc2c(ccc3ccccc23)/C(=C/C(=O)N2CCCCC2)N1 | – | inconclusive [inhibitor, partial curve]
6 | COc1ccc(CN2CC[C@H]3C=CCc4cccc(c43)C2)cc1 | – | inconclusive [inhibitor, partial curve]
7 | CN1/C(=C\C(=S)NC(=O)c2cccc(Br)c2)C(C)(C)c2ccccc21 | – | inconclusive [inhibitor, single point]
8 | Cc1ccccc1SCC(=O)OCC(=O)Nc1ccc(N(C)C)cc1 | – | inconclusive [inhibitor, partial curve]
9 | COc1ccccc1CNC(=O)c1ccc(S(=O)(=O)N2CCCC2)cc1 | inactive: 3.21% | –
10 | CCCCNC(=S)N/N=C/c1ccc(C#N)cc1 | inactive: 62.1% | –
11 | COc1ccc2c(c1)c1ccc3c(c1n2C)C(=O)C=CC3=O | – | inconclusive [inhibitor, partial curve]
12 | O=C(NCCC1=CCCCC1)c1cc(-c2ccccn2)nc2ccccc12 | – | inconclusive [inhibitor, full curve, poor fit]
13 | CCc1nc2c(OCCC3CCCCC3)cccn2c1N(C)C(=O)c1cccs1 | inactive: -28.3% | –
14 | CCOC(=O)c1c(NC(=O)CCN2CCOCC2)sc(C)c1-c1ccccc1 | – | inconclusive [inhibitor, partial curve]
15 | CSc1cccc(NC(=S)N(CCCN2CCCC2)Cc2cccn2Cc2ccc(Cl)cc2)c1 | – | inconclusive [inhibitor, partial curve]
16 | CC(C(=O)NC(C)(C)C)N(Cc1cccs1)C(=O)CCN1CCc2ccccc21 (configuration not stated) | – | inconclusive [inhibitor, single point]
17 | C[C@]12c3[nH]c4ccccc4c3CCN1C(=O)C(CC(=O)NCc1cccc(C(F)(F)F)c1)C[C@@H]2C(=O)N1CCCCC1 (some centres not stated) | – | inconclusive [inhibitor, single point]
18 | Fc1cccc(Cl)c1CSc1ncn[nH]1 | – | inconclusive [inhibitor, single point]
19 | O=C(CN1CCOCC1)Nc1ccc(OC(F)(F)F)cc1 | inactive: -2.03% | –
20 | O=C(Nc1cccc(Cl)c1Cl)C1CCCO1 (configuration not stated) | inactive: -10.9% | –
21 | O=C1c2ccccc2C(=O)c2c1cccc2N1CCN(Cc2ccccc2)CC1 | – | inconclusive [inhibitor, full curve]
22 | CCN1CCN(c2nc3c(C)cccn3c(=O)c2/C=C(\C#N)S(=O)(=O)c2ccccc2)CC1 | – | inconclusive [inhibitor, single point]
23 | Cc1ccc(S(=O)(=O)N2CCCCC2)cc1NC(=O)COC(=O)c1cccc(O)c1 | inactive: -4.95% | –

Row | SMILES | activity change, negative = inhibition | Potency
24 | O=C(Cc1ccccc1F)Nc1ccc(S(=O)(=O)N2CCCCC2)cc1 | inactive: 7.63% | –
25 | CC1=CC(C)(C)N(C(=O)c2ccc(F)cc2)c2cc3c(cc21)OCO3 | – | inconclusive [inhibitor, partial curve]
26 | Cc1ccc(C)c(NC(=O)COC(=O)c2cccc3c2C(=O)c2ccccc2C3=O)c1 | – | inconclusive [inhibitor, partial curve, poor fit]
27 | C(=N\N1CCN(c2ccccc2)CC1)/c1ccccc1 | – | inconclusive [inhibitor, full curve]
28 | CNC(=O)COC(=O)/C=C/c1cn(-c2ccccc2)nc1-c1ccc(C)o1 | inactive: -6.36% | –
29 | CC(C)=CCC/C(C)=C/CNC(=O)C[C@H]1C[C@H](C(=O)N2CCOCC2)[C@@]2(CCC3CCCC3)c3[nH]c4cc(-c5ccco5)ccc4c3CCN2C1=O | – | inconclusive [inhibitor, partial curve]
30 | CCOC(=O)c1c(-c2ccc(-c3ccccc3)cc2)csc1NC(=O)C1C2CCC(O2)C1C(=O)O (configuration not stated) | inactive: -7.32% | –
31 | O=C(Nc1ccc(NC(=O)c2ccco2)nc1)c1ccccn1 | – | inconclusive [inhibitor, single point]
32 | COc1ccc(CN(CCc2ccccc2)Cc2ccccc2)cc1OC | – | inconclusive [inhibitor, single point]
33 | COc1cc(C(=O)OCC(=O)N2CCC(C)CC2)cc2c1OCCO2 | inactive: -1.62% | –
34 | O=[N+]([O-])c1cccnc1Nc1ccc(Cl)cc1 | – | inconclusive [inhibitor, partial curve]
35 | CCN(CC)c1ccc(/C=N/NC(=O)CN2CCCc3ccccc32)cc1 | – | inconclusive [inhibitor, partial curve]
36 | Cc1cc(C)c(NC(=O)C2CCCCN2C)c(C)c1 (configuration not stated) | inactive: 7.47% | –
37 | COc1ccc(CN2CCSCC2)cc1O | inactive: -9.57% | –
38 | CCN1CCN(CCNC(=O)c2ccc(/C=C3/Sc4ccccc4N(Cc4cccc(Cl)c4)C3=O)cc2)CC1 | – | inconclusive [inhibitor, partial curve]
39 | N#Cc1nc(-c2ccco2)oc1N1CCN(c2cccc(Cl)c2)CC1 | – | inconclusive [inhibitor, partial curve]
40 | CCN1C(=O)S/C(=C/c2c(OCc3ccc(C(=O)O)cc3)ccc3ccccc23)C1=O | – | inconclusive [inhibitor, partial curve]
41 | COc1ccc(CN2CCC(C)(Oc3ccc4c(c3)OCO4)C2)c2ccccc12 (configuration not stated) | – | inconclusive [inhibitor, partial curve]
42 | CCOc1cc2c(cc1OCC)-n1cccc1C(c1cc(OC)ccc1F)NC2 (configuration not stated) | – | inconclusive [inhibitor, partial curve]
43 | COc1ccccc1C(=O)N/C(=C\c1cn(S(=O)(=O)N(C)C)c2ccccc12)C(=O)N1CCCCC1 | inactive: 5.25% | –
44 | COc1ccccc1NC(=O)CSC1=NC(=O)C(NC(C)=O)C(=O)N1 (configuration not stated) | inactive: 0.347% | –
45 | Cc1ccc(C)c(NC(=S)c2ccc3ccccc3n2)c1 | – | inconclusive [inhibitor, single point]
46 | COc1cc(CN2CCN(C(=O)c3ccc(-c4ccccc4)cc3)CC2)cc(OC)c1OC | – | inconclusive [inhibitor, single point]

Row | SMILES | activity change, negative = inhibition | Potency
47 | CC1(C)C2CC=C(/C=N/NC(=O)c3ccccc3O)C1C2 (configuration not stated) | – | inconclusive [inhibitor, full curve]
48 | Cc1nn(C)c(C)c1/C=C/C(=O)c1cccs1 | – | inconclusive [inhibitor, single point]
49 | O=C(NCCc1ccccc1)c1ccc(NC(=O)c2cccnc2)cc1 | inactive: 2.22% | –
50 | CC(=O)Nc1cc(-c2ccc(C(=O)N3CCOCC3)cc2)cn2c(-c3ccc(F)cc3)cnc12 | inactive: 36.3% | –
51 | C#CCOCCOCCOCCNc1nc(N2CCN(C(=O)Cn3cc(CCCN=C(N)N)nn3)CC2)nc(N2CCN(C(=O)[C@H](CCCCN)n3cc(CCCC)nn3)CC2)n1 | inactive: -8.04% | –
52 | CCOc1ccccc1/C=N/Nc1ccccc1[N+](=O)[O-] | – | inconclusive [inhibitor, full curve]
53 | Oc1ccccc1N=Cc1ccc[nH]1 | – | inconclusive [inhibitor, partial curve]
54 | COc1ccc(C)cc1NC(=O)c1nn(-c2ccccc2)cc1OC | inactive: -9.12% | –
55 | CC(C)C[C@@H](C(=O)NC1CCN(Cc2ccccc2)CC1)N1C(=O)N2CCc3c([nH]c4ccccc34)[C@@]2(C)C1=O | – | inconclusive [inhibitor, single point]
56 | Cc1ccccc1CCN(C(=O)CN1C(=O)c2ccccc2S1(=O)=O)C(C(=O)NCC1CCCO1)c1ccncc1 (configuration not stated) | – | inconclusive [inhibitor, partial curve]
57 | O=C(c1cccc(-n2cccc2)c1)N1CCN(S(=O)(=O)c2ccccc2Br)CC1 | – | inconclusive [inhibitor, partial curve]
58 | O=C(Nc1cc2c3c(c1)C1CCCC1CN3CC1CCCC21)c1ccc([N+](=O)[O-])cc1 (configuration not stated) | – | inconclusive [inhibitor, partial curve]
59 | COc1ccc(CN2C(=NC(=O)C3CC3)SC3CS(=O)(=O)CC32)cc1OC (configuration not stated) | inactive: 16.6% | –
60 | CN1CCN(c2oc(COc3ccc(-c4ccccc4)cc3)nc2C#N)CC1 | – | inconclusive [inhibitor, partial curve]
61 | O=C(O/N=C\c1ccc(N2CCCCC2)c([N+](=O)[O-])c1)c1c(F)cccc1F | – | inconclusive [inhibitor, partial curve]
62 | CC[n+]1c(/C=C/C=C/N(C(C)=O)c2ccccc2)sc2cc(OC)ccc21 | – | inconclusive [inhibitor, single point]
63 | N#Cc1cccc(C(Br)S(=O)(=O)c2ccccc2)c1 (configuration not stated) | inactive: -2.99% | –
64 | CCOc1ccc(NC(=O)c2sc3nc(N4CCOCC4)c4c(c3c2N)CCCC4)cc1 | inactive: 10.9% | –
65 | C[C@@H](c1ccccc1)N1C[C@H](COCc2ccccc2)Oc2cc(N3CC[C@H](N(C)C)C3)ccc2S1(=O)=O | – | inconclusive [inhibitor, partial curve]
66 | CN(C(=O)c1ccc(NC(=O)Cc2ccc(NC(=O)C3CCN(C(=O)C4CCCC4)CC3)cc2)cc1)C1CC1 | – | inconclusive [inhibitor, full curve]
67 | COCCCN(C(C)=O)c1nc(-c2ccccc2)cs1 | – | inconclusive [inhibitor, single point]
